From publication PMC4336329 (PLoS ONE, 2015)
Screen size: about 310,000 compounds; about 2,200 (0.71%) showed an effect of 50% or more. Effects have a minus sign here. Some of the results follow.

biological target: human ether-à-go-go-related gene (hERG) potassium channel (human, UniProt Q12809); assay: primary screen, population patch clamp on CHO cells stably expressing hERG
Sequence (Q12809 whole entry, looked up): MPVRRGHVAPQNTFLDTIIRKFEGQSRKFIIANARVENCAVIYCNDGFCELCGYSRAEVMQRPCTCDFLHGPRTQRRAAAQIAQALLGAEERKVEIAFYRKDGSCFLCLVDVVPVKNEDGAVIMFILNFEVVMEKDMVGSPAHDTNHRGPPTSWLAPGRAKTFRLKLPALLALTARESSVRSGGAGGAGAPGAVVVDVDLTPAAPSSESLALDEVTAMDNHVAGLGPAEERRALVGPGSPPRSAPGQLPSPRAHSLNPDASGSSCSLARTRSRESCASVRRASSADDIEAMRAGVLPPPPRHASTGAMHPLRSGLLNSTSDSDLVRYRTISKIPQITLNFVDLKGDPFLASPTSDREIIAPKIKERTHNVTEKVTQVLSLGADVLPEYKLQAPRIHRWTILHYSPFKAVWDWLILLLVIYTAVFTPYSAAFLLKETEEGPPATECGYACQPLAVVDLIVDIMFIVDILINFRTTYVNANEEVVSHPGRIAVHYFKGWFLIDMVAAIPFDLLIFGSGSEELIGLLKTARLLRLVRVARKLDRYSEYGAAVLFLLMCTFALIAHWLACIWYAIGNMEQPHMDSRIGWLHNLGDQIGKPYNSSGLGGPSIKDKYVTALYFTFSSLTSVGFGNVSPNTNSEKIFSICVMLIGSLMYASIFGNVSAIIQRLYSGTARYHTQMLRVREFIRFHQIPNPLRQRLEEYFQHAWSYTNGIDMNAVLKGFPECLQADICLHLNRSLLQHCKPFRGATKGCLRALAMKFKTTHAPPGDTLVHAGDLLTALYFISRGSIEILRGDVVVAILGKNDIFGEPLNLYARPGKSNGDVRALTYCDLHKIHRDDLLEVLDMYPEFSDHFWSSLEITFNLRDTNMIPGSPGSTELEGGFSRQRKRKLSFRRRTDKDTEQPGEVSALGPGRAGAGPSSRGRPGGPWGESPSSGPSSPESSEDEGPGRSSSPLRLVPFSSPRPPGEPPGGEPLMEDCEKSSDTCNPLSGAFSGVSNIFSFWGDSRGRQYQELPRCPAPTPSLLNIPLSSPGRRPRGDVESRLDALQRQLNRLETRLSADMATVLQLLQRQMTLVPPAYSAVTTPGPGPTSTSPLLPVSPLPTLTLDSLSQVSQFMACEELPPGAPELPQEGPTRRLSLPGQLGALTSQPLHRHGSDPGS

SMILES	hERG current change (%, negative = inhibition) at 1uM [%]
Cc1ccc(CNC(=O)CS(=O)(=O)c2ccccc2)cc1	11
Cc1nn(CC(=O)N(C)c2c(N)n(Cc3ccccc3)c(=O)[nH]c2=O)c(C)c1[N+](=O)[O-]	-0.554
Cc1ccc(NC(=O)NC(=O)N(c2ccccc2)S(C)(=O)=O)cc1	7.37
Cc1cc(C)c(NC(=O)c2cc(S(=O)(=O)N3CCOCC3)ccc2F)c(C)c1	13.7
CC(=O)c1ccc(-n2c(CCC(=O)O)ccc2-c2ccccc2)cc1	15.5
Cc1ccc(CN2CCN(CC(=O)N3CCC4(CC3)OCCO4)C2=O)cc1	7.12
Cc1cccc(NC(=O)/C(C#N)=C/c2ccc(Cl)cc2)n1	24.6
O=C([O-])Cn1c(COc2ccc(Cl)cc2)nc2ccccc21.[K+]	4.24
Cc1cc(C)nc(-n2nc(C)cc2NC(=O)C(C)C)n1	8.37
COc1ccc(Cl)cc1NC(=S)NCc1ccco1	8.04
O=C(COc1ccc(S(=O)(=O)NC2CCCCC2)cc1)N1CCN(c2cccc(Cl)c2)CC1	-5.03
CON=C1CCN(c2ncc(C(F)(F)F)cc2Cl)CC1	-4.47
CC(C)Oc1ccc(CCC(=O)NNC(=S)Nc2ccccc2)cc1	21.2
O=C(O)c1cn(Cc2ccccc2)nc1-c1cccnc1	14.7
CCOc1ccc(NC(=O)C2CCN(S(=O)(=O)c3ccc4c(c3)NC(=O)C(C)S4)CC2)cc1 (stereo not drawn)	22.2
O=C(CSc1ccccn1)N/N=C/c1cccc([N+](=O)[O-])c1	-0.108
CN(C)c1cc[n+](CC(=O)Nc2ccc(Oc3ccccc3)cc2)cc1.[Cl-]	5.8
O=C(NCc1ccco1)/C(=C/c1ccc(Br)cc1)NC(=O)c1ccco1	11.1
COc1ccc(C)cc1NC(=O)c1cc2c(s1)CCC2	3.64
Cn1c(NC(=O)Cc2cccs2)cc(=O)n(C)c1=O	11.2
COc1cc(CC(=O)NCc2cccs2)cc(OC)c1OC	3.51
Cc1nn(C(C)C(=O)NCc2ccccc2)c(C)c1[N+](=O)[O-] (stereo not drawn)	12.9
Cc1c(Cl)cccc1NC(=S)NCc1ccccc1Cl	15.7

SMILES	hERG current change (%, negative = inhibition) at 1uM [%]
CO/N=C/C(=N\Nc1ccc(OC)cc1)C(=O)c1ccc(F)cc1	10.9
COc1ccc(CCNc2oc(-c3ccccc3OC)nc2C#N)cc1	-0.48
Nc1ccc(Nc2nc(-c3cccs3)cs2)cc1	7.74
O=C(O)C1C2C=CC(C2)C1C(=O)NCc1ccc(Cl)cc1Cl (stereo not drawn)	15.9
Cc1ccc(-c2noc(C3CCCN(S(=O)(=O)c4ccc(S(=O)(=O)N(C)C)cc4)C3)n2)o1 (stereo not drawn)	8.03
COc1ccc(CC(=O)Nc2cccnc2)cc1	20.4
CS(=O)(=O)c1ccccc1-c1nnc(-c2ccc(Cl)cc2)o1	2.89
CCOc1ccc(S(=O)(=O)N2CCCCC2)cc1NC(=O)C1CSC2(C)CCC(=O)N12 (stereo not drawn)	-7.44
COCCCNC(=O)c1ccc(OC)c(OC2CCN(C(C)C)CC2)c1	14.6
O=C(COc1ccc2c(C(F)(F)F)cc(=O)oc2c1)NCc1cccs1	15.7
CCC(Oc1ccccc1)C(=O)NCc1cccnc1 (stereo not drawn)	-5.71
CC1(C)C2CCC1(C)C(OC(=O)CNc1ccccc1)C2 (stereo not drawn)	12.1
CC(C)CCNC(=O)Nc1ccc2c(c1)N(C)C(=O)CS2	12
CSC1=NC(NCCCO)c2c(sc3c2CC(C)(C)OC3)N1 (stereo not drawn)	9.19
COc1cc2cc(C(c3nnnn3C3CCCC3)N3CCc4ccccc43)c(=O)[nH]c2cc1OC (stereo not drawn)	12.7
Cc1cccc([C@@H](NC(=O)OC(C)(C)C)C(=O)OC(C)(C)C)c1	16.8
COc1ccc(C(=O)ON=C2CCN(C)CC2)cc1.Cl	23.2
CCN(CC)S(=O)(=O)c1ccc(Cl)c(C(=O)Nc2nnc(C)s2)c1	7.53
CCN(CC(=O)Nc1ccc(NC(C)=O)cc1)C(=O)c1sc2nc3n(c(=O)c2c1C)CCC3	10.2
COc1ccc2ccccc2c1C1CC(=O)N2CN(C)CSC2=C1C#N (stereo not drawn)	11.4
CCOc1ccc(NC(=S)N(CCN2CCOCC2)Cc2cc3cc4c(cc3[nH]c2=O)OCCO4)cc1	2.44
O=C1CC(c2ccc(Cl)cc2)n2nc(N3C(=O)c4ccccc4C3=O)nc2N1 (stereo not drawn)	-3.99
COc1ccc(Cl)cc1NC(=O)NCCCl	9.78

SMILES	hERG current change (%, negative = inhibition) at 1uM [%]
COc1cccc(CN(C)C(=O)c2cc(S(=O)(=O)N3CCCCCC3)ccc2OC)c1	3.19
CCC(=O)N1CC(=O)Nc2ccc(F)cc2C1c1ccc(F)cc1 (stereo not drawn)	7.59
COc1ccccc1CC(=O)NNC(=O)c1ccco1	15.7
COc1ccc(/C=N/Nc2cc(C)nc(-n3nc(C)cc3C)n2)cc1	5.85
O=[N+]([O-])c1ccc(O)c(Nc2c([N+](=O)[O-])ccc3nonc23)c1	17.3
CCOC(=O)c1c(NC(=O)C[n+]2ccccc2)sc2c1CCCC2.[Cl-]	14.3
Cc1ccc2cc3c(nc2c1)N(Cc1ccco1)CC3	6.42
CCN(CC)CCOC(=O)c1cc(Cl)c(N)cc1OC.Cl	4.81
CCC(CC)NC(=O)Cc1ccccc1OC	1.85
Cn1c(=O)c2c(nc(N3CCCC3)n2CC(O)CO)n(C)c1=O (stereo not drawn)	2.91
O=C1C2C3C=CC(C4CC34)C2C(=O)N1/N=C/c1cccs1 (stereo not drawn)	17.8
O=[N+]([O-])c1ccc(NC(=S)NCC(c2cccnc2)N2CCOCC2)cc1 (stereo not drawn)	-5.08
COc1ccc(C(CC(=O)c2ccc(C)cc2)Nc2ccc([N+](=O)[O-])cc2)cc1 (stereo not drawn)	5.99
Cc1n[nH]c(=S)n1/N=C/c1ccc(-c2ccccc2[N+](=O)[O-])o1	2.78
CC(C)CNS(=O)(=O)c1ccc(CCC(=O)N2CCOCC2)cc1	5.66
CN1CCN(S(=O)(=O)c2ccc(NC(=O)C(C)(C)C)cc2)CC1	8.41
CCN(CC(=O)Nc1ccc2c(c1)OCCO2)C(=O)/C=C/c1ccc(OC)c(OC)c1	5.66
CCOC(=O)CSc1nnc(CCc2nc3ccccc3[nH]2)n1C	5.81
COC(=O)CN(c1nc(C)cc(OC)n1)S(=O)(=O)c1ccc(C)cc1	12.4
c1ccc(-c2nn3c(Cn4nnc5ccccc54)nnc3s2)cc1	4.35
CC(C)NC(=O)c1ccc2c(c1)N(CC(=O)N1CCCCC1)C(=O)C(C)(C)O2	10.4
COc1cc(C(N)=O)ccc1OCc1ccccc1	2.91
c1ccc(-n2ncc3c(N4CCCCC4)ncnc32)cc1	4.85

SMILES	hERG current change (%, negative = inhibition) at 1uM [%]
COc1cccc(COc2nc3c(c(=O)n(C)c(=O)n3C)n2C)c1	14.6
COC(=O)c1ccc(COc2ccc(/C=N/Nc3nc(C)cc(=O)[nH]3)cc2)cc1	15.5
N#Cc1cc2c(=O)n3ccccc3nc2n(-c2ccccc2Cl)c1=O	11
O=C1NN(c2ccccc2)C(=O)C2C3C=CC(C4CC34)C12 (stereo not drawn)	10.8
Cc1ccccc1OCC(=O)N/N=C/c1cc2ccccc2nc1Cl	-3.3
COc1ccc(C(CNC(=O)Cc2c(F)cccc2Cl)N2CCCCC2)cc1 (stereo not drawn)	6.13
CC(=O)Oc1ccc(-c2nc3cc(Cl)ccc3c(=O)o2)cc1	11.8
CCCCCNCc1cccc(Br)c1.Cl	3.77
CC1=C(C(=O)OCc2ccc3c(c2)OCO3)C(c2ccccc2OCc2ccccc2)NC(=O)N1 (stereo not drawn)	18
O=C(Nc1c[nH]c(=O)[nH]c1=O)c1ccc([N+](=O)[O-])cc1	12.7
COc1cccc(C(=O)NC2CCCc3c2cnn3-c2ccc(C)c(C)c2)c1OC (stereo not drawn)	11.5
O=C(Nc1ccc(N2CCOCC2)cc1)C1CC(O)CN1S(=O)(=O)c1ccc(Cl)cc1 (stereo not drawn)	13.9
COc1ccc(OC)c(S(=O)(=O)CC(=O)c2cc3ccc(OC)cc3oc2=O)c1	13.6
COc1ccc(NC(=O)c2ccc(-n3c(C)ccc3C)cc2)c(OC)c1	10.4
CCNC(=O)CSc1nc(-c2ccc(F)cc2)cs1	20.8
COc1ccc2cc3cc(C(=O)Nc4ccc5c(c4)OCCO5)oc3nc2c1	0.374
CC1=NN(c2ccccc2)C(=O)C1c1ccccc1 (stereo not drawn)	10.4
Cl.O=S(=O)(NCCN1CCOCC1)c1ccc(Cl)c(Cl)c1	12.9
CCOC(=O)C1CCN(C(=O)c2cc(S(=O)(=O)N3CCOCC3)ccc2C)CC1	6.46
O=S(=O)(c1cccs1)N1CN(Cc2ccc(F)cc2)c2nc3ccccc3nc21	3.68
Cc1nc(/N=C(\N)NC(=O)N2c3ccccc3Sc3ccccc32)nc2ccccc12	11.9
